Z-score data for 73 molecules are collected here from PubChem BioAssay AID488969 (Vanderbilt High Throughput Screening Facility, 2010).

In all, about 110,000 compounds were measured (“z-score”: median about -0.1, highest 2% from about 2 on). Some of the results follow.

In the experiment the target is Metabotropic glutamate receptor 8 (Rattus norvegicus) (UniProt P70579). The experiment is described as follows: rat mGluR8 modulators via GIRK flux, primary screen, cell-based, thallium flux, HTS (AID 488969). The following applies: HEK293 rat mGluR8, GIRK (G protein-gated inwardly rectifying potassium channel) thallium flux, FluoZin2; at 10 µM; stronger effect = higher value; submaximal glutamate (EC20) added with thallium.
Chain of UniProt P70579 (P70579 whole entry, looked up): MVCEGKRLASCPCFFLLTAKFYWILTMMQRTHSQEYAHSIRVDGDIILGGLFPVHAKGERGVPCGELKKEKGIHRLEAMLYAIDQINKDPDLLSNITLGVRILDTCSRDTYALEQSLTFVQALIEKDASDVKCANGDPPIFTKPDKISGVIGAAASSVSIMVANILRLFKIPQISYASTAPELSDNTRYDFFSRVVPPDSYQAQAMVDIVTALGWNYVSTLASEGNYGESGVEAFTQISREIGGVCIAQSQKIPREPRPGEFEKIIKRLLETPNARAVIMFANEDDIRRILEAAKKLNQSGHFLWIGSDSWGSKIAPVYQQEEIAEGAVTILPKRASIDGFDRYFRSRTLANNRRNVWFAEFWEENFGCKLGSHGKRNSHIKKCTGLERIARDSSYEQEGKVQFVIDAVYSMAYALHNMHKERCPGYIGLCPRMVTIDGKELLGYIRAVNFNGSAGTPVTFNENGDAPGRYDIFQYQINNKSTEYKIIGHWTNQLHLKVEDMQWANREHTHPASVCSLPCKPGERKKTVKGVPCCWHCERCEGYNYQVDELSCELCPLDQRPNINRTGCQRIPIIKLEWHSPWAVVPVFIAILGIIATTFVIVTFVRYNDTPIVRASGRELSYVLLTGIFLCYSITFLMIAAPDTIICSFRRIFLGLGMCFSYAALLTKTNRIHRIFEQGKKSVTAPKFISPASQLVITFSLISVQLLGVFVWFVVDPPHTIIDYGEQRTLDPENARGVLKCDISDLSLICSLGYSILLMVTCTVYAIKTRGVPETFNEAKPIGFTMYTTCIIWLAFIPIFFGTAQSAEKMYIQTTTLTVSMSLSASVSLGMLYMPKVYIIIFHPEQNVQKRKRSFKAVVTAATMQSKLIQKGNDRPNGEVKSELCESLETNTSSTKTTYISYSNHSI
Take `Cc1cc(C(=O)NP(=O)(N2CCOCC2)N2CCOCC2)c(C)n1-c1ccc(N(C)C)cc1`: the z-score was -0.344. As to `CCOc1cc(NC(=S)NCc2ccco2)c(OCC)cc1NC(=O)CC`, the z-score is -0.0982. The result for `CCCNS(=O)(=O)c1ccc(CCC(=O)N2CCN(c3ccc(F)cc3)CC2)cc1` reads -0.715.

The molecule `C=CCNc1nc(N2CCCC2)nc2ccccc12` gave a z-score of 2.37. The result for `CCOc1cc2[nH]c(=S)n(CCCN(CC)CC)c(=O)c2cc1OCC` reads -0.475; that for `CCc1ccc(C(C)NC(=O)c2cc(C)oc2C)cc1` (stereo not drawn), -0.386; that for `O=S(=O)(Nc1ccc2c(c1)oc1ccccc12)N1CCCC1`, -0.363.

`COc1ccc(N=C2SC(CC(=O)Nc3ccccc3OC)C(=O)N2Cc2ccco2)cc1` (stereo not drawn): the z-score is -0.0471. The result for `Cc1cc2oc(=O)cc(CSc3nnc(-c4cccs4)o3)c2cc1C(C)C` reads -0.189; that for `COc1ccccc1N1CCN(CCCCOc2ccc(F)cc2)CC1`, -0.111. Under `Cc1ccc(Nc2ccc(C(F)(F)F)cc2[N+](=O)[O-])cc1` stands -0.145; under `CC(C)Cn1c(C(C)NC(=O)Cc2ccccc2)nc2ccccc21` (stereo not drawn), -1.24. In turn, `COC(=O)NC(=C(Cl)Cl)S(=O)(=O)c1ccccc1` had a z-score of 0.181.

`Cc1cc(C)n(/N=C/c2ccccc2)c(=O)c1C#N` showed a z-score of -0.422.

As for `COc1cc2c(cc1OC)C(C(=O)N1CCN(c3ccccn3)CC1)C(c1cccs1)N(C)C2=O` (stereo not drawn), the z-score is -0.0378. The result for `Cc1cccc(NC(=O)Nc2nnc(N3CCCCC3C)s2)c1C` (stereo not drawn) reads -0.194. Under `CC(C)(C)NC(=O)CN(Cc1cccs1)C(=O)CNS(=O)(=O)c1ccccc1` stands -0.153; under `CN(C(=O)c1ccncc1)c1nnc(-c2cnccn2)s1`, -0.251. `CN(Cc1nc(-c2ccccn2)no1)S(=O)(=O)c1ccc(Cl)cc1` gave a z-score of 0.711. The result for `COC(=O)C1C(=O)C2=C(CC1C)NC(=O)CC2c1cccc(C)c1` (stereo not drawn) reads -0.174; that for `O=C(C(Sc1ccccc1)c1ccccc1)N1CCN(c2ccccc2F)CC1` (stereo not drawn), -0.414. For the molecule `Cc1ccc(C(=O)Nc2ccn(Cc3ccc(F)cc3)n2)o1`, the z-score was -0.068.

Turning to `Cc1ccc2[nH]c(=O)c(C(c3nnnn3CC3CCCO3)N3CCCc4ccccc43)cc2c1` (stereo not drawn), the z-score is 0.374. On to `CC(NC(=O)c1sc2ccccc2c1Cl)C1CCCO1` (stereo not drawn), for which the z-score was -0.609. The result for `CC(=O)c1c(C)nc2ccc(Br)cc2c1C(=O)O` reads -0.291; that for `COc1cccc(C(=O)Nc2cc3c(cc2Br)OCCCO3)c1`, -0.424; that for `Cc1onc(-c2c(F)cccc2Cl)c1C(=O)Nc1cccc(Cn2cccn2)c1`, -0.179. Under `COc1cc(NC(=O)Nc2ccc(C)cc2)cc([N+](=O)[O-])c1` stands -0.358. The result for `Cc1ccc2nc(NC(=O)c3ccc(Cl)s3)sc2c1` reads -0.0778; that for `CN(C)c1ccc(/C=N/NC(=O)C(=O)/C=C2\NC3(CCCC3)Cc3ccccc32)cc1`, 0.862.

`COc1cccc(C2CC(c3cccc(Br)c3)n3ncnc3N2)c1` (stereo not drawn) yielded a z-score of -0.102. The result for `Cc1ccccc1N/N=C1\CCCNC1=O` reads 0.0319; that for `COc1cccc(-c2nnc(SCc3nc4ccccc4s3)n2C)c1`, -0.34. The result for `CC(Sc1n[nH]c(N)n1)c1nc2scc(-c3cccs3)c2c(=O)[nH]1` (stereo not drawn) reads -0.0891; that for `Cc1ccc[n+](CC(=O)c2ccc(-c3ccccc3)cc2)c1`, 0.738. Under `CCC(=O)Nc1sc2c(c1C(=O)N(C)C)CCCCC2` stands -0.0268; under `N#Cc1c(C(F)(F)F)cc(-c2ccccc2)nc1SCC(=O)Nc1sc2c(c1C#N)CCC2`, -0.109; under `O=C(CN1CCN(Cc2ccccc2)CC1)NC(=O)NCc1ccco1`, -0.198. The molecule `c1ccc2[nH]c(NCCN3CCOCC3)nc2c1` showed a z-score of -0.105.

As for `O=C(CSCC(=O)Nc1cccc([N+](=O)[O-])c1)Nc1ccccc1`, the z-score was -0.231. Turning to `O=C(COC(=O)/C=C/c1cnc2ccccc2n1)NCC(F)(F)F`, the z-score was 0.343. The result for `Cc1cccc(NC(=O)C2CCCN2S(=O)(=O)c2cccc3cccnc23)c1` (stereo not drawn) reads 0.22. The result for `O=C(NCC1CCCO1)C1CC(=O)N(C2CCCCCC2)C1` (stereo not drawn) reads 0.13. As to `Cn1nnnc1SCc1ccc([N+](=O)[O-])cc1`, the z-score was 0.306.

On to `CCCC(=O)Nc1ccccc1NC(=O)CN(C)S(=O)(=O)c1ccccc1`, for which the z-score was 0.0247. Under `Cc1cccc(Nc2nnc(C)c(=O)n2N)c1` stands -0.46; under `O=C(Nc1cnn(Cc2ccccc2)c1)NC12CC3CC(CC(C3)C1)C2`, 0.093. With `O=C(Nc1ccc2oc(-c3ccncc3)nc2c1)c1ccccc1F`, the z-score is -0.225. The result for `CCC(=O)Nc1nnc(-c2ccccn2)o1` reads -0.0239; that for `CCN1C(=O)c2cccc3c(NC(=O)C4CCCCC4)ccc1c23`, -0.192; that for `COc1cccc(NC(=O)CSc2nnc(COc3ccc4c(c3)CCCC4)o2)c1`, 0.223.

For `O=C(CCc1ccccc1)OCCN1CCOCC1`, the z-score came to 1.87. `O=C(C1CCN(c2ccc(N3CCOCC3)nn2)CC1)N1CCc2ccccc2C1` gave a z-score of -0.535. The result for `Cc1ccc(NC(=O)C(OC(=O)c2cc(C)oc2C)c2ccccc2)cc1` (stereo not drawn) reads -0.0577; that for `CC(C)(C)OC(=O)N1CCC(C(=O)N[C@@H](Cc2ccccc2)C(=O)O)CC1`, -0.103.

`COc1ccccc1NC(=S)N(CCCN1CCOCC1)Cc1ccccn1` displayed a z-score of -0.414. The molecule `COc1cc(CNCc2cccs2)cc(Br)c1OC` displayed a z-score of -0.147. The result for `CCc1nc(OCCN(CC)CC)c2oc3ccccc3c2n1` reads -0.286; that for `COC(=O)c1c(N2C(=O)CCC2=O)sc2c1CCCC2`, 0.268.

For the molecule `CC(=O)Cn1c(CN2CC(C)CC(C)C2)nc2c1c(=O)n(C)c(=O)n2C` (stereo not drawn), the z-score is 0.0595. Molecule `CCOc1cc(S(=O)(=O)N2CCCCCC2)ccc1F` had a z-score of -0.144. Under `CN(C)CCCNC(=S)NCc1ccc(Cl)cc1` stands -0.54. Under `O=C(CSc1ncn(-c2ccccc2)n1)Nc1nc2c(s1)CCCC2` stands -0.646. The result for `FC(F)(F)c1cc(-c2ccccc2)nc2ncnn12` reads 0.271; that for `O=C(O)c1ccc(Cl)cc1NC(=O)C1CCCO1` (stereo not drawn), -0.559; that for `CCCNC(=O)COC(=O)CCC(=O)c1cccs1`, -0.27. In turn, `Cn1c(=N)n(CC(=O)O)c2ccccc21` showed a z-score of 0.982. In turn, `Cc1cccc(Nc2ccccc2C(=O)OCC(=O)N(C)C2CCS(=O)(=O)C2)c1C` (stereo not drawn) returned a z-score of 0.039. The result for `Cc1cccc(Oc2ncnc3oc(-c4ccccc4)cc23)c1C` reads -0.0842.

Take `OCCNc1nc(N2CCCC2)nc(N2CCCC2)n1`: the z-score was -0.968. Under `O=C(c1cc(-c2ccc(Cl)c(Cl)c2)on1)N1CCN(c2ccccc2)CC1` stands -0.562; under `Cc1ccc(Cl)c(OCC(=O)OCC(=O)NC2CCCc3ccccc32)c1` (stereo not drawn), -0.47; under `O=[N+]([O-])c1cccc(Cl)c1NCCNc1ncc(C(F)(F)F)cc1Cl`, -0.0828.
